From PubChem BioAssay AID504339 (National Center for Advancing Translational Sciences (NCATS), 2011)
Where “and” joins values, the source holds several entries; their conditions need not be identical. Equal entries are not always repeated. Among all 390,000 compounds or so, about 17,000 (4.4%) were called active. Inconclusive means that the source gave no clear call. Such entries were picked first, then a sample of the others. Calls come from the whole dose curve; as a rule, active = well fitted inhibition curve with a large enough effect; inconclusive = small, poorly fitted or top-dose-only effect; inactive = no such curve, though single readings can be large or run the other way. Potencies beside an inconclusive call are fits to weak or partial responses and may not hold up. A structure can be active in one record and inactive in another.

target: Lysine-specific demethylase 4A (Homo sapiens) (UniProt O75164); assay: qHTS Assay for Inhibitors of JMJD2A-Tudor Domain; settings: AlphaScreen JMJD2A-Tudor / H3K4me3 peptide binding; series mostly up to 114 µM; note: nearly all actives have a fitted effect of over 50% in size
Chain of UniProt O75164 (O75164 whole entry, looked up, the tested form may be a part): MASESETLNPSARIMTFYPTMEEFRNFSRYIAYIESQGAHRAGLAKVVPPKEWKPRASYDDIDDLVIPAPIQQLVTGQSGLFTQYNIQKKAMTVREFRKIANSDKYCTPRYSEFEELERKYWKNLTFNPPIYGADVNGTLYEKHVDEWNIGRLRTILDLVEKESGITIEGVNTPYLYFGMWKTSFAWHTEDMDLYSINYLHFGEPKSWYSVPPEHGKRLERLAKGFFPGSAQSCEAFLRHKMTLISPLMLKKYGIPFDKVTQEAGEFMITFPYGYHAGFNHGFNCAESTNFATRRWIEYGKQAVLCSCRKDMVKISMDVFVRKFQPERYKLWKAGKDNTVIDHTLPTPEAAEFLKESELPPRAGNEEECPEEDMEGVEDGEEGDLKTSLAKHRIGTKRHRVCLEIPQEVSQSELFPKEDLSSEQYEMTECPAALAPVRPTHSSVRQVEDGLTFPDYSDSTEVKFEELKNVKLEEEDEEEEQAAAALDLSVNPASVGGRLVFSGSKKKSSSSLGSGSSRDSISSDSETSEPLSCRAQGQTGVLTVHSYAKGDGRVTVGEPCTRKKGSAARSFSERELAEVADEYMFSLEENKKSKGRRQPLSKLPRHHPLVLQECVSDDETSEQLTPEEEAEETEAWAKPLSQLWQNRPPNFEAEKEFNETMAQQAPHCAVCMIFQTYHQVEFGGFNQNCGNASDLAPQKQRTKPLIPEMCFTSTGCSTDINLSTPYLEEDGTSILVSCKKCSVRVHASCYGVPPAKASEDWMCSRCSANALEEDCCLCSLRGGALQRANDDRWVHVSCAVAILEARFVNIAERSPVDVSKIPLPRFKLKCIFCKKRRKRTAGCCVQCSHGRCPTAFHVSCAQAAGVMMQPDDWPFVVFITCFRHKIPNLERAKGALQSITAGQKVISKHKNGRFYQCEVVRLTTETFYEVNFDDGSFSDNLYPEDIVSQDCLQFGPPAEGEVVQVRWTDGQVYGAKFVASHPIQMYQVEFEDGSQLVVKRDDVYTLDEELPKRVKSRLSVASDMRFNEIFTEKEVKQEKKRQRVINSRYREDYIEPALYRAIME
Potency is the fitted concentration of half-maximal effect; tags give direction and shape of the fitted curve.

Potency, active:
Cc1ccc2nc(Cl)c3cc(C(=O)N(CCN(C)C)Cc4ccco4)sc3c2c1 44.7 µM, COc1ccccc1OCC(O)CN1CCN(CC(=O)Nc2c(C)cccc2C)CC1 (stereo not given) 89.1 µM, Cc1nn(-c2ccccc2)c2c1C(c1ccco1)C(C#N)=C(N)O2 (stereo not given) 63.1 µM, CCCCC(CC)CN1C(=O)/C(=C/c2ccncc2)SC1=S (stereo not given) 28.2 µM, O=C(CCO)c1ccc(O)cc1 20 µM, S=C(NCCCCN(Cc1ccc(Cl)cc1)c1ccc(Br)cn1)NCCCc1cnc[nH]1 44.7 µM, O=[N+]([O-])c1ccc(O)c(/C=N/Nc2nn[nH]n2)c1 10 µM, COc1ccc(Nc2ccc(S(=O)(=O)N3CCCCC3)cc2[N+](=O)[O-])cc1Cl 5.62 µM, O=C(CN1CCN(c2ccccn2)CC1)N1c2ccccc2CCc2ccccc21 3.16 µM, CCOc1ccc(N=C2NC(=O)S/C2=C\c2ccc(OC)cc2)cc1 28.2 µM, ClC(Cl)(c1nnnn1-c1ccccc1)c1nnnn1-c1ccccc1 20 µM, CC(c1n[nH]c(=S)n1-c1ccc(Cl)cc1)N(C)C (stereo not given) 7.94 µM, Cc1ccccc1OCCN1CCCC1 20 µM, COc1cccc(OC)c1OCCCNC1CCCC1 25.1 µM, CC(C)(C)c1ccc(C2C3=C(CCCC3=O)NC3=C2C(=O)c2ccccc23)cc1 (stereo not given) 25.1 µM, COc1ccc(C)cc1NCc1cccc(OC)c1OC 6.31 µM

Potency, inconclusive:
Cc1cccc(/N=C/c2sc3ccccc3c2O)n1 44.7 µM [inhibitor, partial curve], CCCCN(C)CCNC(=O)c1nn(-c2ccc(OC)cc2)c(=O)c2c1c1ccccc1n2C 100 µM [inhibitor, partial curve, poor fit], N#C/C(=C\c1ccc(-c2cc(Cl)ccc2Cl)o1)C(=O)Nc1ccccc1C(=O)O 7.94 µM [inhibitor, full curve], COc1cccc(C=Nc2ccc3c(c2)CCC3)c1O 44.7 µM [inhibitor, partial curve], Cc1ccccc1OC1=NS(=O)(=O)c2ccccc21 89.1 µM [inhibitor, partial curve] and 126 µM [inhibitor, single point], Cc1cc(C)c(Cn2c(C(O)c3ccccc3)nc3ccccc32)c(C)c1 (stereo not given) 35.5 µM [inhibitor, full curve, poor fit], Cc1c(/C=N/NC(=O)c2cccnc2)cc(C#N)n1C 63.1 µM [inhibitor, partial curve, poor fit], CCOC(=O)C1CCCCN1Cc1ccc(F)c(Br)c1 (stereo not given) 0.708 µM [inhibitor, full curve, poor fit], O=C(NC1CCCC1)C(c1ccccn1)N(C(=O)c1csnn1)c1ccccc1Br (stereo not given) 0.794 µM [inhibitor, full curve, poor fit], O=C(Nc1cccc(S(=O)(=O)NC2=NCCC2)c1)c1cc(-c2ccco2)nc2ccccc12 8.91 µM [inhibitor, full curve, poor fit], CCN(CC)C(=O)c1[nH]cnc1C(=O)Nc1ccccc1 89.1 µM [inhibitor, single point], CCOc1ccccc1OCCCC(=O)N1CCN(S(=O)(=O)c2ccc(C)cc2)CC1 100 µM [inhibitor, single point], Cc1ccccc1OCC(=O)N1N=C(C(F)(F)F)CC1(O)C(C)(C)C (stereo not given) 35.5 µM [inhibitor, single point], COc1ccccc1C(CC(=O)Nc1nccs1)c1ccco1 (stereo not given) 56.2 µM [inhibitor, partial curve], O=c1c(-c2c(O)cc(O)c3c2O[C@H](c2ccc(O)cc2)CC3)c(-c2ccc(O)cc2)oc2cc(O)cc(O)c12 56.2 µM [inhibitor, partial curve, poor fit], CC(C)c1ccc(CNC(=O)C(=O)Nc2nccs2)cc1 31.6 µM [inhibitor, partial curve], Cc1ccc(NCc2cccc(B(O)O)c2)cc1 50.1 µM [inhibitor, partial curve], Nc1nc(-c2ccco2)c(-c2ccco2)s1 56.2 µM [inhibitor, partial curve], CC1(OC(=O)CCc2ccccc2)C(=O)C=C2C=C(c3ccc(C#N)cc3)N(CCc3c[nH]c4ccccc34)C=C2C1=O (stereo not given) 89.1 µM [inhibitor, partial curve, poor fit], O=C(c1ccc(Br)o1)N1CC=C(c2ccccc2)CC1 31.6 µM [inhibitor, partial curve], Cc1ccc(-c2cc(Cc3ccc(N(C)C)cc3)c(=O)[nH]n2)cc1 17.8 µM [inhibitor, full curve], CCOC(=O)/C(=N\Nc1ccccc1)S(=O)(=O)c1ccccc1 44.7 µM [inhibitor, partial curve], CCN(CC(=O)Nc1ccc2c(c1)OCCO2)c1nc(-c2cccnc2)nc2ccccc12 89.1 µM [inhibitor, partial curve], Nc1ccccc1N=c1ssnc1Cl 56.2 µM [inhibitor, partial curve], COc1ccc2cc(C3CC(c4cccs4)=NN3S(C)(=O)=O)c(Cl)nc2c1 (stereo not given) 10 µM [inhibitor, partial curve], COc1ccc(OC)c(-c2csc(NC(=O)Cc3ccc(F)cc3)n2)c1 10 µM [inhibitor, partial curve], CCn1c(C)cc(/C=C2/NC(=O)N(c3ccccc3)C2=O)c1C 22.4 µM [inhibitor, partial curve], Cc1c(NC(=O)c2ccccc2F)cccc1-c1nc2cccnc2s1 56.2 µM [inhibitor, partial curve, poor fit], CCOc1ccc(NC(=S)Nc2ccccc2C2CC2)cc1 89.1 µM [inhibitor, single point], Cc1cc(O)c(C(C)C)cc1NC(=O)Nc1ccc([N+](=O)[O-])cc1 56.2 µM [inhibitor, partial curve], COc1ccc(/C=N/Nc2nc(-c3ccc(C)cc3)c(C#N)c(=O)[nH]2)cc1 35.5 µM [inhibitor, partial curve], COCCOC(=O)C1=C(C)N(c2ccccc2)C(=S)NC1c1ccccc1C(F)(F)F (stereo not given) 79.4 µM [inhibitor, partial curve], Cc1cccc(-n2nc([N+](=O)[O-])c(=NC3CCN(Cc4ccccc4)CC3)n2O)c1 39.8 µM [inhibitor, partial curve], COc1ccc(CN(CC(=O)NC2CCCC2)C(=O)c2ccc(-c3ccccc3)[nH]2)cc1 17.8 µM [inhibitor, full curve], COc1cccc(CNC(=O)c2cc(S(=O)(=O)N3CCCC3)cn2C)c1 89.1 µM [inhibitor, partial curve], C[C@]12c3[nH]c4ccccc4c3CCN1C(=O)C(CC(=O)NCC13CC4CC(CC(C4)C1)C3)C[C@@H]2C(=O)N1CCOCC1 (stereo not given in full) 50.1 µM [inhibitor, partial curve], Cc1oc(-c2nc3ccccc3n2C)cc1C(=O)c1ccccc1 56.2 µM [inhibitor, partial curve], Fc1ccc2c(c1)NC(c1ccncc1)=NC(c1cccs1)=N2 50.1 µM [inhibitor, partial curve], CC(=O)c1c(C)[nH]c(C(=O)Nc2cccc(S(=O)(=O)N(C)c3ccccc3)c2)c1C 89.1 µM [inhibitor, partial curve], COc1ccc(NC(=O)CSc2nccn2-c2cccc(OC)c2)cc1 79.4 µM [inhibitor, partial curve]

Potency, inactive:
O=C(O)c1cccc(-c2ccc(/C=N/n3cnnc3)o2)c1, O=C(NCCCN1CCN(c2ccccc2F)CC1)c1nnc(Cc2ccc(Cl)cc2Cl)o1, Cc1cc(C)cc(NC(=O)N2CCN(C/C=C/c3ccccc3)CC2)c1, COc1ccc([C@@H]2[C@@H]3C(=O)N(C(C)(C)C)C(=O)[C@@H]3[C@]3(C)C(=O)N(c4cccc(Cl)c4)C(=O)N23)cc1, CCN(CC)S(=O)(=O)c1ccc(C)c(NC(=S)NC2CCCCC2)c1, Cc1ccc(NC(=S)Nc2cccc(-c3n[nH]c(=S)o3)c2)cc1, CC1Cn2cc(C(=O)Nc3cccc(C(F)(F)F)c3)c(=O)c3c(Cl)ccc(c32)O1 (stereo not given), O=C1C2C3CCCC3=C3CCCC3C2C(=O)N1c1ccccc1Cl (stereo not given), Clc1cnc(Nc2cccnc2)c(Cl)c1, COc1cccc2sc(N(Cc3cccnc3)C(=O)C3COc4ccccc4O3)nc12 (stereo not given), Cc1nc(-c2coc3cc(O)c(C)cc3c2=O)cs1, Oc1ccccc1Nc1ncnc2c1oc1ccccc12, COc1ccc(CCN(C)S(=O)(=O)c2cn(C)c(=O)n(C)c2=O)cc1OC, Cc1c(NC(=O)c2cc(=O)c3cc(Cl)ccc3o2)c(=O)n(-c2ccccc2)n1C
